# Test results reported in a collection of fitness landscapes (doi:10.1016/j.celrep.2020.107928).
# Whole data set: some 81,000 sequences, median “one-hybrid fitness for binding parS DNA” near -0.17, cut for the highest 2% near 0.51. The list shows a part of the results.
# B1: Caulobacter ParB omega fusion; a variant is named by its letters at X, in order, B8GW30 (parent)
# chain: MESVVVGEPGMSEGRRGLGRGLSALLGEVDAAPAQAPGEQLGGSREAPIEILQRNPDQPRRTFREEDLEDLSNSIREKGVLQPILVRPSPDTAGEYQIVAGERAWRAAQRAGLKTVPIMVRELDDLAVLEIGIIENVQRADLNVLEEALSYKVLMEKFERTQENIAQTIGKSXSHVANXMRLLXLPDEVQSYLVSGELTAXHARAIAAAADPVALAKQIIEGGLSVRETEALARKAPNLSAGKSKGGRPPRVKDTDTQALESDLSSVLGLDVSIDHRGSTGTLTITYATLEQLDDLCNRLTRGI
# Variants of: B1
# Assay: one-hybrid fitness for binding parS DNA (scaled: cognate 1, non-cognate 0); higher = stronger binding
# Conditions: with parS DNA site
# Method in brief: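 On M9-minus-histidine containing 0.1 mM IPTG and 5 mM 3-AT, E. coli USO cells with a HIS3 reporter, site 19 bp from the promoter, grew 48 hours at 37°C to select Caulobacter ParB libraries randomised at four specificity codons. Plasmids from before and after were Illumina-sequenced, with three replicate libraries pooled and variants under 10 reads left out. Fitness is the log change in variant-to-wild-type read ratio, rescaled against cognate and non-cognate.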
row,Variant,one-hybrid fitness for binding parS DNA
1,GHYS,≤ 0.2
2,SVPK,≤ 0.2
3,QHFT,≤ 0.2
4,YTIY,≤ 0.2
5,PWGA,≤ 0.2
6,PAGH,≤ 0.2
7,QFNA,≤ 0.2
8,YEDG,≤ 0.2
9,PVVL,≤ 0.2
10,TSHW,≤ 0.2
11,TQSV,≤ 0.2
12,HNQR,≤ 0.2
13,SSGS,≤ 0.2
14,RWTH,≤ 0.2
15,SDAC,≤ 0.2
16,YQWG,≤ 0.2
17,TSVC,≤ 0.2
18,CRGD,≤ 0.2
19,NWIC,≤ 0.2
20,LCPA,≤ 0.2
21,VAPQ,≤ 0.2
22,RLPL,≤ 0.2
23,RFQA,0.579
24,LDTR,≤ 0.2
25,TMSA,≤ 0.2

row,Variant,one-hybrid fitness for binding parS DNA
1,ANRC,≤ 0.2
2,DNTH,≤ 0.2
3,EVAA,≤ 0.2
4,RKLE,≤ 0.2
5,HQSH,≤ 0.2
6,AWCR,≤ 0.2
7,LKAL,≤ 0.2
8,PPMR,≤ 0.2
9,VLDG,≤ 0.2
10,HQSV,≤ 0.2
11,EWNT,≤ 0.2
12,PNSY,≤ 0.2
13,PPAY,≤ 0.2
14,SHFW,≤ 0.2
15,VRNH,≤ 0.2
16,LFHL,≤ 0.2
17,GRIA,≤ 0.2
18,ACYS,≤ 0.2
19,RAFV,≤ 0.2
20,YLHC,≤ 0.2
21,LHGR,≤ 0.2
22,QIDW,≤ 0.2
23,CCDG,≤ 0.2
24,HLSS,≤ 0.2
25,PTDR,≤ 0.2

row,Variant,one-hybrid fitness for binding parS DNA
1,SFKS,≤ 0.2
2,VVEW,≤ 0.2
3,SATW,≤ 0.2
4,SLVT,≤ 0.2
5,SSGE,≤ 0.2
6,LMEK,≤ 0.2
7,KRNV,≤ 0.2
8,WCRG,≤ 0.2
9,QSCI,≤ 0.2
10,PFQC,≤ 0.2
11,VLWC,≤ 0.2
12,AGDT,≤ 0.2
13,ILSF,≤ 0.2
14,LLLE,≤ 0.2
15,RVDN,0.371
16,RCNY,0.482
17,ANKS,≤ 0.2
18,LDHI,≤ 0.2
19,RQSC,0.968
20,QQNG,≤ 0.2
21,RYKL,≤ 0.2
22,RIIR,≤ 0.2
23,PSYD,≤ 0.2
24,CCCS,≤ 0.2
25,SGIH,≤ 0.2

row,Variant,one-hybrid fitness for binding parS DNA
1,NRYN,≤ 0.2
2,GDWR,≤ 0.2
3,TISV,≤ 0.2
4,ADNH,≤ 0.2
5,MNRV,≤ 0.2
6,AHWD,≤ 0.2
7,LATL,≤ 0.2
8,VWPM,≤ 0.2
9,QLAA,≤ 0.2
10,YWQT,≤ 0.2
11,FAKY,≤ 0.2
12,NIHY,≤ 0.2
13,IGLK,≤ 0.2
14,RHFM,0.202
15,RCTY,0.494
16,QSCF,≤ 0.2
17,QFPN,≤ 0.2
18,QQAI,≤ 0.2
19,LQAT,≤ 0.2
20,HSQS,≤ 0.2
21,NSYH,≤ 0.2
22,SRRI,≤ 0.2
23,TAVH,≤ 0.2
24,YETR,≤ 0.2
25,RVCL,≤ 0.2

row,Variant,one-hybrid fitness for binding parS DNA
1,NKGS,≤ 0.2
2,QCVV,≤ 0.2
3,HTCC,≤ 0.2
4,FNLR,≤ 0.2
5,VQTC,≤ 0.2
6,GDVC,≤ 0.2
7,MHTH,≤ 0.2
8,TTRD,≤ 0.2
9,RFVD,≤ 0.2
10,RHRA,0.58
11,EVPT,≤ 0.2
12,VLVV,≤ 0.2
13,TFIW,≤ 0.2
14,SPSC,≤ 0.2
15,QCQF,≤ 0.2
16,LHYT,≤ 0.2
17,GQTK,≤ 0.2
18,RHWC,0.759
19,SLQC,≤ 0.2
20,NWGC,≤ 0.2
21,KPCG,≤ 0.2
22,RKNP,≤ 0.2
23,ENFG,≤ 0.2
24,IHMG,≤ 0.2
25,WVVR,≤ 0.2

row,Variant,one-hybrid fitness for binding parS DNA
1,PLAW,≤ 0.2
2,PLDW,≤ 0.2
3,ELCC,≤ 0.2
4,RRLE,≤ 0.2
5,TAAF,≤ 0.2
6,TNWG,≤ 0.2
7,THLG,≤ 0.2
8,PGSV,≤ 0.2
9,WRST,≤ 0.2
10,HRGF,≤ 0.2
11,YYLG,≤ 0.2
12,RRNW,≤ 0.2
13,LTGY,≤ 0.2
14,KENR,≤ 0.2
15,REGT,0.201
16,REPP,≤ 0.2
17,SNCT,≤ 0.2
18,SQTF,≤ 0.2
19,LQNG,≤ 0.2
20,INSC,≤ 0.2
21,LVDR,≤ 0.2
22,HPHM,≤ 0.2
23,LIGT,≤ 0.2
24,QWIA,≤ 0.2
25,NQES,≤ 0.2

row,Variant,one-hybrid fitness for binding parS DNA
1,DTSI,≤ 0.2
2,HCLM,≤ 0.2
3,QCVW,≤ 0.2
4,VEQT,≤ 0.2
5,PKVT,≤ 0.2
6,ESCT,≤ 0.2
7,WFCG,≤ 0.2
8,LQHM,≤ 0.2
9,YILR,≤ 0.2
10,LFGC,≤ 0.2
11,WGNT,≤ 0.2
12,QADD,≤ 0.2
13,VQHA,≤ 0.2
14,THKY,≤ 0.2
15,KAQD,≤ 0.2
16,TMMR,≤ 0.2
17,TWAG,≤ 0.2
18,SAMV,≤ 0.2
19,SRYC,≤ 0.2
20,LGSK,≤ 0.2
21,SESE,≤ 0.2
22,VAAT,≤ 0.2
23,SMKR,≤ 0.2
24,YKPL,≤ 0.2
25,LVAW,≤ 0.2

row,Variant,one-hybrid fitness for binding parS DNA
1,WTLC,≤ 0.2
2,RIPH,≤ 0.2
3,LCYC,≤ 0.2
4,SAYD,≤ 0.2
5,SGYV,≤ 0.2
6,PPKC,≤ 0.2
7,CEPV,≤ 0.2
8,RKNW,≤ 0.2
9,RTLY,0.495
10,PYTD,≤ 0.2
11,RVPG,0.691
12,NPIC,≤ 0.2
13,ARAM,≤ 0.2
14,LVWL,≤ 0.2
15,RMHP,≤ 0.2
16,DPAF,≤ 0.2
17,VMNS,≤ 0.2
18,CVDK,≤ 0.2
19,APLS,≤ 0.2
20,QQAE,≤ 0.2
